From the supplement of paper PMC11417369
± gives the standard deviation of the averaged measurements. The list shows a part of the results.

These sequences were tested on PfAP2-EXP AP2 domain (GST-tagged) (assay: gcPBM binding intensity (ln(normalized median fluorescence intensity)); higher = stronger DNA binding).
Method in brief: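 DNA-binding domains from P. falciparum, fused to GST and produced in E. coli, were put on an Agilent 4 × 180k double-stranded probe array for 1 h in 1× PBS holding 1% milk, 0.2 mg/ml BSA, 0.5% salmon testes DNA and 0.03% Triton X-100. Probes were primer-extended, 36 bp long and drawn from intergenic genomic regions, with negative controls included. After Alexa488 anti-GST antibody detection and a 488 nm scan, binding intensity was set as the highest Masliner-normalised natural-log median intensity across replicate spots of either probe orientation.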

“TCATGTAGTAAAAACTGTACAAATTATTTATCATGT [XGTACX_site1727]” and “TTTCATTTTAGAAGTACACACAAAAAATAAAATAAT [CACACA_site2141]” are within error of each other in “gcPBM binding intensity (ln)” value: 8.58 ± 0.44 for the first, 8.8 ± 0.44 for the second.

“TTTTCTTTATTATAATGTACTCACAAATAAATATAA [XGTACX_site7298]” and “CTATAATAGAAGTGTACACACATATTTATGTCTGTA [CACACA_site7462]” are within error of each other in “gcPBM binding intensity (ln)” value: 8.45 ± 0.35 for the first, 8.47 ± 0.26 for the second.

“GATGGGCAAATTTACTGTACTTTTATAATATTTTTT [XGTACX_site4830]” and “TATAATGGTAAAAACACACAAATATGAAGATGTTAA [CACACA_site6479]” are within error of each other in “gcPBM binding intensity (ln)” value: 8.77 ± 0.35 for the first, 8.59 ± 0.36 for the second.

“AAAATTGTGAAAGGGAAGATGATCAAATTGTTAAGG [CACACA_negctrl_site1492]” and “GTACCTATAAATATTACACACATTTTCATTTTTAAC [CACACA_site7022]” are within error of each other in “gcPBM binding intensity (ln)” value: 8.64 ± 0.4 for the first, 8.93 ± 0.34 for the second.

“AAAAAAAATTATATTTGTACGCATTAAAAAATCTAA [XGTACX_site1616]” and “CTTAAAAACAAAAATGCACACATAATAAGCATATGT [CACACA_site9149]” are within error of each other in “gcPBM binding intensity (ln)” value: 8.4 ± 0.36 for the first, 8.63 ± 0.42 for the second.

“TGAAATTAGATATATACACACATATAGATTTATATG [CACACA_site7619]” and “ATTAAACTCATTAAGAGTACAGATAACATTAAAGTA [XGTACX_site8697]” are within error of each other in “gcPBM binding intensity (ln)” value: 8.17 ± 0.49 for the first, 8.52 ± 0.36 for the second.

“TTTTTTAAAGCCTGTTCATCATCCTTACCTATCAAC [GTGCAC_negctrl_site452]” and “TGTCCTTATTGGCACACACACATATAAGAAATTTAA [CACACA_site5724]” are within error of each other in “gcPBM binding intensity (ln)” value: 8.64 ± 0.55 for the first, 8.46 ± 0.47 for the second.

“TATTTTTTCTTAAACACACACATATAGATTTATAAC [CACACA_site7354]” and “ACCCTATTTATATATACACACACATATATAAATAAA [CACACA_site8980]” are within error of each other in “gcPBM binding intensity (ln)” value: 8.61 ± 0.52 for the first, 8.78 ± 0.31 for the second.

“ATATGGAATGATCATAGTACATAATTTAAAATTTTA [XGTACX_site3568]” and “CTAATTCGTATATGCTGTACCTTTTTCTTACGACTA [XGTACX_site4392]” are within error of each other in “gcPBM binding intensity (ln)” value: 8.61 ± 0.42 for the first, 8.86 ± 0.33 for the second.

“AACATATATAATATTTGTACTTATATACAAAATATG [XGTACX_site7502]” and “ATCAGATATATATATTGTACATTTATATATAAATCA [XGTACX_site1960]” are within error of each other in “gcPBM binding intensity (ln)” value: 8.32 ± 0.34 for the first, 8.46 ± 0.36 for the second.

Compared with “ATTAAAAATTATATTTTATAAAAATTAAAAGAAATA [CACACA_negctrl_site65]”, ACTTTTTTGAACAACGTGCACGTATTCATAACAAAA is higher in “gcPBM binding intensity (ln)” value: 8.28 ± 0.27 for the first, 8.87 ± 0.085 for the second.

“ATAGGATGTTTGCACTGTACCAAAAAATGAGCTGCA [XGTACX_site2825]” and “ATTTATTTATCTAGCTATTCACCATTTTCTTTTGTT [CACACA_negctrl_site1259]” are within error of each other in “gcPBM binding intensity (ln)” value: 8.9 ± 0.38 for the first, 8.86 ± 0.41 for the second.

First: AAAGTATACAATGACGCATGCATATATATATACATA [TGCATGCA_site429]
Second: TAGAATATGTTTAGTTGTACAAAACAAAATGGAATT [XGTACX_site5293]
The “gcPBM binding intensity (ln)” value of the first is higher: 9.38 ± 0.18 for the first, 8.61 ± 0.33 for the second.

First: ATTTATTTTTTGTGTTCACACATTAGTATCATCTAT [CACACA_site5274]
Second: CACATAAAAAAATAAACACACATATGTATATATATA [CACACA_site3177]
The “gcPBM binding intensity (ln)” value of the first is lower: 8.62 ± 0.42 for the first, 9.215 ± 0.007 for the second.

Going from “ATTTTTCTAAAATACTGTACAAAGGTGCATAAAAAG [XGTACX_site4425]” to “TCTAATGATATATACACACACATATAGATTTATATA [CACACA_site7044]”, the “gcPBM binding intensity (ln)” value falls from 9.98 ± 0.61 to 8.32 ± 0.38.

“TTTTCTGTTTTCATTACACACCTTACAAGAACAATA [CACACA_site2158]” and “ATATTTATGGAATATACACACATGTATAATTATATA [CACACA_site2033]” are within error of each other in “gcPBM binding intensity (ln)” value: 8.66 ± 0.19 for the first, 8.36 ± 0.37 for the second.

Going from “AAATAAGAAAAAGCGCGTACACATAACATTTTTATA [XGTACX_site8807]” to “TGCTTTTCTTTTTGCACACTTATGCATATATATATA [CACACA_site2583]”, the “gcPBM binding intensity (ln)” value rises from 8.69 ± 0.29 to 9.95 ± 0.13.

TTTATTCAAGGAATAGTGCATAATAATAAGTATTAT and TGTATTCTCTTAGTAGTGCATTTGAAGATTATATAA are within error of each other in “gcPBM binding intensity (ln)” value: 8.39 ± 0.27 for the first, 8.8 ± 0.16 for the second.

Going from “ATTTTTTTTTTTTTTTCATGAAATTTTTTTTTTTTT [CACACA_negctrl_site1069]” to “ATATATTTATTATTAGGTACACATATATATATATAT [XGTACX_site5045]”, the “gcPBM binding intensity (ln)” value rises from 8.26 ± 0.58 to 10.2 ± 0.54.

“TTAAAAAAAAATAAAGGTACACGGAGAAATCCTTTT [XGTACX_site7509]” and “TTATATAGAATTAATTTCTTTTTTTTCTTTTTTAAA [CACACA_negctrl_site1308]” are within error of each other in “gcPBM binding intensity (ln)” value: 8.39 ± 0.43 for the first, 8.12 ± 0.55 for the second.

“TGTAGTAATGCTTATTGTACATATACATTTCTTACA [XGTACX_site219]” and “AACCACCACACCATCACACATAAGATTAGACGAGTA [CACACA_site6063]” are within error of each other in “gcPBM binding intensity (ln)” value: 8.55 ± 0.32 for the first, 8.46 ± 0.54 for the second.

“TATTATATATATGGAAGTACAGGTATATCGTTTTTC [XGTACX_site3771]” and “TTTTTTTTTCGCTTTTGTACACATTTTATAGAACAG [XGTACX_site2416]” are within error of each other in “gcPBM binding intensity (ln)” value: 8.62 ± 0.42 for the first, 8.87 ± 0.46 for the second.
